# According to the supplement of paper PMC4967469:
# The IC50 comes from the fitted curve, where viability falls to half of the control; where the fit passes the top or lowest dose, that dose stands as a limit. AUC is the area under the same curve over the 256-fold range up to the top dose, as a fraction: 1 means no effect, lower means more sensitive. For some of these results: The top dose, if marked as inferred, was derived from the fitted curves, not read from the paper. For some of these results: Drugs with an entry number were screened twice under separate entries, and the two screens often disagree.
# Legend:
# Experiment in all cases: Viability of human cancer cell lines after 72 h of drug (GDSC screen)
# SB-505124 = compound: Cc1cccc(-c2[nH]c(C(C)(C)C)nc2-c2ccc3c(c2)OCO3)n1 [SB-505124]; settings: top dose 10 µM; top dose inferred
# Procedure: (§1)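 Human cancer cell lines in 384-well plates, medium with 10% serum, drug for 72 h over a 256-fold dose range (nine 2-fold or five 4-fold steps up to the top dose). Adherent lines were fixed and stained with the nucleic acid dye Syto60, suspension lines read with resazurin; signal relative to control wells, capped at 0 and 100%. One two-parameter sigmoid per drug and line, fitted in a mixed model over all curves with the slope shared within a line.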
# PI-103 = compound: Oc1cccc(-c2nc(N3CCOCC3)c3oc4ncccc4c3n2)c1 [PI-103]; settings: top dose 10.24 µM
# Procedure: as §1
# UNC0638 = compound: COc1cc2c(NC3CCN(C(C)C)CC3)nc(C3CCCCC3)nc2cc1OCCCN1CCCC1 [UNC0638]
# Procedure: as §1
# GSK690693 = compound: CCn1c(-c2nonc2N)nc2c(C#CC(C)(C)O)ncc(OC[C@H]3CCCNC3)c21 [GSK690693]; settings: top dose 10.24 µM; top dose inferred
# Procedure: as §1
# WZ3105 = compound: C=CC(=O)Nc1cccc(Nc2nc(NC3CCC(N(C)C)CC3)nc3c2ncn3C(C)C)c1 [WZ3105]; settings: top dose inferred
# Procedure: as §1
# [1] = top dose 20 µM, screen: GDSC drug entry 1236, top dose inferred
# [2] = top dose 40 µM, screen: GDSC drug entry 245
Cell Line,AUC (WZ3105),IC50 (WZ3105) [nM],also measured
"769-P (kidney, adherent)",,,AUC (SB-505124): 0.944; IC50 (SB-505124): > 10000 nM; AUC (PI-103): 0.461; IC50 (PI-103): 497 nM; AUC (UNC0638; [1]): 0.794; IC50 (UNC0638; [1]): 10200 nM; AUC (UNC0638; [2]): 0.766; IC50 (UNC0638; [2]): 16100 nM; AUC (GSK690693): 0.957; IC50 (GSK690693): > 10200 nM
"BICR31 (head and neck, adherent)",,,AUC (PI-103): 0.862; IC50 (PI-103): 8900 nM; AUC (UNC0638; [2]): 0.969; IC50 (UNC0638; [2]): > 40000 nM; AUC (GSK690693): 0.987; IC50 (GSK690693): > 10200 nM
"COR-L303 (small cell lung carcinoma, suspension)",,,AUC (PI-103): 0.338; IC50 (PI-103): 231 nM; AUC (UNC0638; [2]): 0.58; IC50 (UNC0638; [2]): 4110 nM; AUC (GSK690693): 0.828; IC50 (GSK690693): 6030 nM
"COR-L311 (small cell lung carcinoma, suspension)",,,AUC (PI-103): 0.205; IC50 (PI-103): 79.5 nM; AUC (GSK690693): 0.331; IC50 (GSK690693): 209 nM
"Caov-3 (ovary, adherent)",,,AUC (PI-103): 0.983; IC50 (PI-103): > 10200 nM; AUC (UNC0638; [2]): 0.785; IC50 (UNC0638; [2]): 15000 nM; AUC (GSK690693): 0.991; IC50 (GSK690693): > 10200 nM
"KYSE-270 (oesophagus, adherent)",,,AUC (SB-505124): 0.981; IC50 (SB-505124): > 10000 nM; AUC (UNC0638; [1]): 0.809; IC50 (UNC0638; [1]): 8600 nM; AUC (UNC0638; [2]): 0.806; IC50 (UNC0638; [2]): 16900 nM; AUC (GSK690693): 0.977; IC50 (GSK690693): > 10200 nM
"SNU-175 (large intestine, suspension)",,,AUC (PI-103): 0.937; IC50 (PI-103): > 10200 nM; AUC (UNC0638; [2]): 0.782; IC50 (UNC0638; [2]): 15600 nM; AUC (GSK690693): 0.982; IC50 (GSK690693): > 10200 nM
"SNU-475 (liver, adherent)",,,AUC (PI-103): 0.924; IC50 (PI-103): > 10200 nM; AUC (UNC0638; [2]): 0.669; IC50 (UNC0638; [2]): 6930 nM; AUC (GSK690693): 0.957; IC50 (GSK690693): > 10200 nM
"TE-11 (oesophagus, adherent, top dose 1.28 µM)",0.954,> 1280,
"TE-12 (oesophagus, suspension, top dose 1.28 µM)",0.864,> 1280,
"TE-15 (oesophagus, suspension, top dose 1.28 µM)",0.761,511,
"TE-441-T (rhabdomyosarcoma, adherent, top dose 1.28 µM)",0.579,131,
"TGBC1TKB (biliary tract, adherent, top dose 1.28 µM)",0.975,> 1280,
"TGBC11TKB (stomach, adherent, top dose 1.28 µM)",0.968,> 1280,
"TGBC24TKB (biliary tract, adherent, top dose 1.28 µM)",0.911,> 1280,
"TGW (neuroblastoma, adherent, top dose 1.28 µM)",0.992,> 1280,
"THP-1 (acute myeloid leukaemia, suspension, top dose 1.28 µM)",0.695,264,
"TK10 (kidney, adherent, top dose 1.28 µM)",0.92,> 1280,
"TK (B-cell lymphoma, suspension, top dose 1.28 µM)",0.935,> 1280,
"TMK-1 (stomach, adherent, top dose 1.28 µM)",0.929,> 1280,
"TOV-21G (ovary, adherent, top dose 1.28 µM)",0.982,> 1280,
"TOV-112D (ovary, adherent, top dose 1.28 µM)",0.647,205,

Cell Line,AUC (WZ3105),IC50 (WZ3105) [nM],also measured
"TT2609-C02 (thyroid, adherent, top dose 1.28 µM)",0.835,918,
"TT (thyroid, adherent, top dose 1.28 µM)",0.869,> 1280,
"TUR (B-cell lymphoma, suspension, top dose 1.28 µM)",0.569,122,
"TYK-nu (ovary, adherent, top dose 1.28 µM)",0.932,> 1280,
"U031 (kidney, adherent, top dose 1.28 µM)",0.978,> 1280,
"U251 (glioma, adherent, top dose 1.28 µM)",0.743,380,
"U-2-OS (osteosarcoma, adherent, top dose 1.28 µM)",0.981,> 1280,
"U-87-MG (glioma, adherent, top dose 1.28 µM)",0.832,1020,
"U-118-MG (glioma, adherent, top dose 1.28 µM)",0.883,> 1280,
"U-698-M (B-cell leukaemia, suspension, top dose 1.28 µM)",0.559,116,
"UACC-62 (melanoma, adherent, top dose 1.28 µM)",0.905,> 1280,
"UACC-257 (melanoma, adherent, top dose 1.28 µM)",0.682,295,
"UACC-812 (breast, adherent)",,,AUC (PI-103): 0.566; IC50 (PI-103): 960 nM; AUC (UNC0638; [2]): 0.883; IC50 (UNC0638; [2]): > 40000 nM; AUC (GSK690693): 0.957; IC50 (GSK690693): > 10200 nM
"UACC-812 (breast, adherent, top dose 1.28 µM)",0.991,> 1280,
"UACC-893 (breast, adherent, top dose 1.28 µM)",0.742,510,
"UM-UC-3 (bladder, adherent, top dose 1.28 µM)",0.744,378,
"UMC-11 (lung carcinoid, adherent, top dose 1.28 µM)",0.83,687,
"UWB1.289 (ovary, adherent, top dose 1.28 µM)",0.879,> 1280,
"VA-ES-BJ (soft tissue, adherent, top dose 1.28 µM)",0.894,> 1280,
"VAL (B-cell lymphoma, suspension, top dose 1.28 µM)",0.827,784,
"VCaP (prostate, adherent, top dose 1.28 µM)",0.599,151,
"VM-CUB-1 (bladder, adherent, top dose 1.28 µM)",0.964,> 1280,

Cell Line,AUC (WZ3105),IC50 (WZ3105) [nM],also measured
"VMRC-MELG (melanoma, adherent, top dose 1.28 µM)",0.986,> 1280,
"VMRC-RCW (kidney, adherent, top dose 1.28 µM)",0.982,> 1280,
"VMRC-RCZ (kidney, adherent, top dose 1.28 µM)",0.938,> 1280,
"WIL2-NS (lymphoid neoplasm, suspension, top dose 1.28 µM)",0.652,193,
"WM35 (melanoma, adherent, top dose 1.28 µM)",0.882,> 1280,
"WM278 (melanoma, adherent, top dose 1.28 µM)",0.824,894,
"WM793B (melanoma, adherent, top dose 1.28 µM)",0.814,792,
"WM1552C (melanoma, adherent, top dose 1.28 µM)",0.97,> 1280,
"WM-115 (melanoma, adherent, top dose 1.28 µM)",0.819,948,
"WSU-DLCL2 (B-cell lymphoma, suspension, top dose 1.28 µM)",0.782,441,
"WSU-NHL (lymphoid neoplasm, suspension, top dose 1.28 µM)",0.955,> 1280,
"YAPC (pancreas, adherent, top dose 1.28 µM)",0.866,> 1280,
"YH-13 (glioma, adherent, top dose 1.28 µM)",0.937,> 1280,
"YKG-1 (glioma, adherent, top dose 1.28 µM)",0.748,419,
"YMB-1-E (breast, adherent)",,,AUC (PI-103): 0.938; IC50 (PI-103): > 10200 nM; AUC (UNC0638; [2]): 0.764; IC50 (UNC0638; [2]): 19900 nM; AUC (GSK690693): 0.605; IC50 (GSK690693): 1380 nM
"YMB-1-E (breast, adherent, top dose 1.28 µM)",0.774,696,
"YT (lymphoid neoplasm, suspension, top dose 1.28 µM)",0.986,> 1280,
"huH-1 (liver, adherent, top dose 1.28 µM)",0.978,> 1280,
"no-10 (glioma, adherent, top dose 1.28 µM)",0.743,472,
"no-11 (glioma, adherent, top dose 1.28 µM)",0.85,> 1280,
